Screen size: about 380,000 compounds; about 4,000 (1.1%) were called active. The shares of active, inactive and inconclusive entries below differ from those in the screen. Calls come from the whole dose curve; as a rule, active = well fitted activation curve with a large enough effect; inconclusive = small, poorly fitted or top-dose-only effect; inactive = no such curve, though single readings can be large or run the other way. Potencies beside an inconclusive call are fits to weak or partial responses and may not hold up.
Test: qHTS Assay to Identify Small Molecule Activators of BRCA1 Expression; note: nearly all actives have a fitted effect of over 80% in size
Settings: MCF7-BRCA1-FFLuc reporter, luminescence, 48 h; activation: at 46.1 µM (top of the series), scaled: vehicle 0%, 10 µM genistein 100% unless noted
Outline: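 MCF7 cells carrying a BRCA1-firefly luciferase reporter (2000 cells/well, phenol-red free MEM) were attached for 2 h at 37 °C, then given compounds for 48 h. Luminescence was read 15 min after luciferase reagent; activity normalized to genistein (10 microM) and DMSO.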
Potency is the fitted concentration of half-maximal effect; tags give direction and shape of the fitted curve.

Structure (SMILES) | activation | Potency
Nc1ccc(-c2nc3ccc(N)cc3s2)cc1 | inactive: 19.1% | 
Cn1c(CN2CCCC2)nc2cc(NC(=O)c3ccco3)ccc21 |  | active: 5.62 µM
CCC(C)NC(=O)Cn1c(COc2ccc(Cl)cc2Cl)nc2ccccc21 (configuration not stated) |  | inconclusive: 35.5 µM [activator, single point]
Cc1[nH]c2ccc(C(=O)N3CCC(C(N)=O)CC3)cc2c1C |  | inconclusive: 0.794 µM [activator, full curve, poor fit]
O=C(NC1CCCCCCC1)c1ccccc1O |  | inconclusive: 11.2 µM [activator, partial curve, poor fit]
COc1ccc(CCN2CC(C(=O)NCCCc3ccncc3)CCC2=O)cc1 (configuration not stated) | inactive: -7.51% | 
c1ccc(-n2nnc(-c3cccnc3)n2)cc1 |  | active: 7.94 µM
COc1ccccc1C(NC(=O)C1CCN(CCOc2ccccc2)CC1)c1ccccn1 (configuration not stated) | inactive: 15.8% | 
O=C(Oc1cccc(NC(=O)c2ccco2)c1)c1cccc(S(=O)(=O)N2CCCCC2)c1 |  | inconclusive: 35.5 µM [activator, single point]
CN(C)c1cccc(-c2csc(N3CCC(C(N)=O)CC3)n2)c1 |  | inconclusive: 11.2 µM [activator, partial curve, poor fit]
CC1(C)Oc2ccc3ccc(=O)oc3c2/C(=C/Nc2cccc(O)c2)C1=O | inactive: 0.263% | 
CC1CCN(C(=S)NCCc2ccccc2)CC1 |  | active: 7.08 µM
Cc1nn(-c2ccccc2)c(N)c1N=Nc1ccc(Cl)cc1 |  | inconclusive: 1.58 µM [activator, partial curve, poor fit]
Cc1ccc(OCc2cc(C(=O)NCCc3cccnc3)no2)cc1C |  | active: 11.2 µM
Oc1ccccc1N1CCN(c2ccc3ccccc3n2)CC1 |  | inconclusive: 2.51 µM [activator, full curve, poor fit]
COc1cccc(C(=O)Nc2nc(C)cs2)c1 |  | inconclusive: 4.47 µM [activator, full curve, poor fit]
COc1cccc2c1C(=O)c1c(O)c3c(c(O)c1C2=O)CC(O)(C(C)=O)CC3OC1CC(N(C)C)C(O)C(C)O1 (configuration not stated) | inactive: -77.2% | 
O=C(CI)Nc1cccc2cccnc12 | inactive: -39.3% | 
CC(C)c1ccc2[nH]c3nc(SCC(=O)N4CCOCC4)nnc3c2c1 |  | active: 11.2 µM
Cc1ccc(S(=O)(=O)N2C[C@H]3C(=O)C[C@@H](c4ccc(Cl)cc4)N(S(=O)(=O)c4ccc(C)cc4)[C@H]3C[C@H]2c2ccccc2)cc1 | inactive: -3.41% | 
C[C@@H]1OC(C2CCCCC2)N(C)[C@H]2C[C@H]3c4[nH]c5ccccc5c4CCN3C[C@@H]12 (some centres not stated) | inactive: -17.2% | 
CC(=O)Nc1cccc(NC(=O)C(=O)c2cn(CC(=O)N3CCCC3)c3ccccc23)c1 |  | inconclusive: 15.8 µM [activator, partial curve, poor fit]
Cc1ccc(NC(=O)CN(C)CC(=O)Nc2sc3c(c2C(N)=O)CCC3)cc1 | inactive: -47% | 
CC(C)(C)C(=O)OCc1nc(-c2ccc(Cl)cc2)cs1 |  | inconclusive: 11.2 µM [activator, partial curve, poor fit]

Structure (SMILES) | activation | Potency
Cc1cc2nc(-c3ccc(SCC(=O)Nc4ccc(S(=O)(=O)N5CCCC5)cc4)nc3)[nH]c2cc1C |  | inconclusive: 2.51 µM [activator, partial curve, poor fit]
O=C(Nc1ccc2oc(-c3ccccc3F)nc2c1)c1ccco1 |  | inconclusive: 1.41 µM [activator, full curve, poor fit]
COc1ccccc1N(CC(=O)Nc1ccccc1C(F)(F)F)S(=O)(=O)c1ccc(C)cc1 | inactive: -1.7% | 
COc1ccc(OC)c2nc(-c3cccnc3)ccc12 |  | inconclusive: 31.6 µM [activator, single point]
CC(C)Nc1ncnc2c1cnn2-c1ccccc1 |  | inconclusive: 1.58 µM [activator, full curve, poor fit]
Cc1ccc(SCC(=O)N2CCc3ccccc32)cc1 |  | inconclusive: 12.6 µM [activator, partial curve, poor fit]
CC1Oc2cc3oc4c(O)c5c(cc4c(=O)c3c(O)c2C1(C)C)C=CC(C)(C)O5 (configuration not stated) |  | inconclusive: 6.31 µM [activator, partial curve, poor fit]
CCCC[n+]1ccc(-c2nc3ccc([N+](=O)[O-])cc3[nH]2)cc1 |  | inconclusive: 15.8 µM [activator, partial curve, poor fit]
COc1cccc(NC(=O)C2=COCCO2)c1 |  | inconclusive: 3.55 µM [activator, partial curve, poor fit]
Cc1cc(NC(=O)c2ccc(N3CCCC3)c([N+](=O)[O-])c2)no1 |  | inconclusive: 10 µM [activator, partial curve, poor fit]
COc1ccc(-c2cnc(N)nc2-c2ccc(OCc3ccccc3)cc2O)cc1 | inactive: -86.5% | 
O=C(/C=C/c1ccc2c(c1)OCO2)Nc1ccc(Cl)cn1 |  | inconclusive: 0.891 µM [activator, full curve, poor fit]
CCC(=O)Nc1c(C(=O)Nc2cccc(OC)c2)oc2ccccc12 |  | inconclusive: 11.2 µM [activator, partial curve, poor fit]
Cn1cccc1C(=O)OCC(=O)Nc1ccc2c(c1)OCCO2 |  | active: 2 µM
O=C(Nc1cccnc1)c1cc2c(ccc3ccccc32)o1 |  | active: 12.6 µM
CCOc1ccc(-c2cn3nc(CC(C)C)sc3n2)cc1 |  | inconclusive: 4.47 µM [activator, full curve, poor fit]
CC(=O)Nc1ccc(-c2cc3ccccc3o2)cc1 |  | inconclusive: 1 µM [activator, full curve, poor fit]
O=C(NCc1ccco1)c1cc2cc(Br)ccc2o1 |  | inconclusive: 15.8 µM [activator, partial curve, poor fit]
Cc1ccc(C(=O)N(Cc2ccco2)c2ccccn2)cc1 | inactive: 45.6% | 
N/C(=N\OC(=O)c1ccc2c(c1)OCO2)c1cccc(Br)c1 |  | inconclusive: 11.2 µM [activator, partial curve, poor fit]
COc1ccc(/C=C/CN2CCC(n3nccc3NC(=O)C3CC3)CC2)cc1 | inactive: 28.2% | 
COc1ccc(C(C)NC(=O)Nc2ccc(C(C)=O)cc2)cc1OC (configuration not stated) |  | active: 11.2 µM
Cc1nc(-c2ccc(C(=O)Nc3ccc(F)cc3)cc2)cs1 |  | inconclusive: 1.41 µM [activator, partial curve, poor fit]
CN(CCC#N)C(=O)c1cc2c(s1)-c1ccccc1SC2 |  | inconclusive: 7.08 µM [activator, partial curve, poor fit]

Structure (SMILES) | activation | Potency
O=C(OCCc1ccccc1)c1cc(O)c(O)c(O)c1 |  | inconclusive: 22.4 µM [activator, single point]
CCCSc1nnc(NC(=O)c2ccco2)s1 |  | inconclusive: 10 µM [activator, partial curve, poor fit]
CC1CC(C)C(=NNC(N)=O)C(C(O)CC2CCC(=O)NC2=O)C1 (configuration not stated) | inactive: -49.8% | 
O=C(NCCc1ccccc1)C(=O)NC1CCCCC1 |  | active: 3.98 µM
Cc1cc(NC(=O)CSc2nc3ccsc3c(=O)n2Cc2ccccn2)n[nH]1 |  | active: 5.62 µM
CN(CCCC(=O)O)c1ccc(N=Nc2ccc([N+](=O)[O-])cc2)cc1 |  | inconclusive: 2 µM [activator, partial curve, poor fit]
Cc1ccc(C(=O)Nc2ccccc2C(=O)NCC2CCCO2)cc1 (configuration not stated) | inactive: 13% | 
COc1ccc(-c2nc(SC)n(C(=O)c3ccco3)n2)cc1 |  | active: 11.2 µM
CC(=NNC(=S)N1CC2CCC(CC2)C1)c1cnccn1 | inconclusive: -80% [activator] | 
NC(=O)c1ccc(-c2noc(-c3cccc(Cl)c3)n2)cc1 |  | inconclusive: 1.78 µM [activator, full curve, poor fit]
CC(=O)c1cccc(NC(=O)c2cc3ccccn3n2)c1 |  | active: 2.51 µM
CC(=O)n1cc(N(C(=O)CCl)c2ccc(C)cc2)c2ccccc21 | inactive: -79.8% | 
CC(C)[C@H](NC(=O)OC(C)(C)C)c1nnc(SCC(=O)Nc2ccc(Br)cc2)o1 | inactive: 4.14% | 
O=C(C[n+]1cc(-c2ccc(Cl)cc2)n2c1CCCCC2)c1ccccc1 | inactive: -24.7% | 
Cn1nc(C(F)(F)F)c(-c2cccc(C(F)(F)F)c2)c1NC(=O)CSCC(=O)O | inactive: -4.46% | 
CC(C)(C)C(=O)CSc1nnc(Nc2ccccc2)s1 |  | inconclusive: 12.6 µM [activator, partial curve, poor fit]
COc1ccc(CNc2ccc(-c3ccc(OC)cc3)nn2)cc1 | inconclusive: 76.1% [activator] | 
Cc1cccc(/C=N/N2CCN(c3ccccc3)CC2)c1 |  | inconclusive: 15.8 µM [activator, partial curve, poor fit]
CNC(=O)c1c(O)c2cccc3c2n(c1=O)CCC3 | inactive: -91.2% | 
Cc1cnn(C(=S)NCCc2ccccc2)c1 |  | inconclusive: 17.8 µM [activator, partial curve, poor fit]
C/C(CC(=O)Nc1ccc(Cl)cc1C(F)(F)F)=N\NC(=O)c1ccccn1 |  | inconclusive: 31.6 µM [activator, single point]
CC(C)CC(=O)N/C(N)=N/c1nc2ccccc2o1 |  | inconclusive: 2.51 µM [activator, full curve, poor fit]
Cc1ccc(C(=O)O)cc1NC(=S)NC(=O)c1ccc(-c2ccccc2)cc1 |  | inconclusive: 7.08 µM [activator, partial curve, poor fit]
O=C(CSc1nnc(-c2cccnc2)o1)Nc1ccc(Br)cc1 |  | inconclusive: 11.2 µM [activator, single point]

— PubChem BioAssay AID624202 (National Center for Advancing Translational Sciences (NCATS), 2012)
